# Experimental data from the BET-seq Pho4 binding data (Le et al. 2018).
# This is one part of the list. These are noisy estimates, calculated here from bound and input reads.
# Target: T1, Pho4 (S. cerevisiae) (UniProt P07270)
# T1 sequence: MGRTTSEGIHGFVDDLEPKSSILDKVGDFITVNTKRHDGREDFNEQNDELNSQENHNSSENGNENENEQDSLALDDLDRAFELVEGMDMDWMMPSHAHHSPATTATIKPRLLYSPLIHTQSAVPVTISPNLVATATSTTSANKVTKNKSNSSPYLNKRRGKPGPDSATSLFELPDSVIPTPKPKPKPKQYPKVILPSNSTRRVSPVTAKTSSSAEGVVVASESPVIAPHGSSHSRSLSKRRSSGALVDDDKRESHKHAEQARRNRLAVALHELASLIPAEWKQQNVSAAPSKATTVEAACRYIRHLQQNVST
# Assay: relative binding free energy (BET-seq); higher = weaker binding
# Settings: reference: library average
row,Sequence,relative binding free energy [kcal/mol]
1,AAGCGCACGTGGTGTT,-0.21
2,GATAGCACGTGTGAAT,0.24
3,CTTGGCACGTGGGTGG,-0.11
4,AATGGCACGTGGCGCG,-0.31
5,GTGGACACGTGTGCAG,0.02
6,GGCAGCACGTGTTTGG,0.01
7,AGGGGCACGTGTGCAG,-0.07
8,TTAGACACGTGGATGT,0.01
9,ATGCGCACGTGCGGGG,-0.09
10,TGTACCACGTGGTGGG,-0.16
11,ATTTCCACGTGGGTGG,-0.02
12,TAGAGCACGTGAGGAA,0.21
13,TTCGGCACGTGGAGGC,-0.16
14,TTTAGCACGTGGTTTT,-0.1
15,TAGTTCACGTGATGGA,0.52
16,AGTCGCACGTGGTGGA,-0.13
17,GGTCACACGTGTTTGT,0.12
18,TGCGACACGTGTGGTT,-0.02
19,GGGGTCACGTGTTAAA,0.22
20,TGAAGCACGTGTGGTA,-0.02
21,CGGAGCACGTGGTGGA,-0.1
22,GGGGCCACGTGATTGT,0.21
23,TAAGTCACGTGCATGT,0

row,Sequence,relative binding free energy [kcal/mol]
1,TTATACACGTGGTTAG,-0.09
2,TTGATCACGTGTTTTG,0.12
3,TGTGTCACGTGCCATT,-0.06
4,AGGGGCACGTGTGGTT,-0.03
5,CTTGACACGTGAGTTT,0.3
6,CTGTTCACGTGATTGT,0.32
7,TGATTCACGTGTCCTG,0.28
8,GTAATCACGTGTTTTT,0.29
9,TGGGACACGTGGCGTC,-0.07
10,TCTGTCACGTGGCTGT,0
11,ATAAGCACGTGCTTGT,-0.12
12,TGTTGCACGTGCCGGA,-0.16
13,TTGATCACGTGTATAG,0.2
14,TACTTCACGTGAGGTG,0.38
15,ATGAACACGTGTTTTT,0.05
16,TTTCGCACGTGAAGAG,0.18
17,AGGATCACGTGCGGAA,0.3
18,AATGGCACGTGAGTGA,0.13
19,GTGGCCACGTGTAATG,-0.01
20,TGATGCACGTGAGAGT,0.27
21,GCAGGCACGTGGGGCG,-0.3
22,TTGTTCACGTGTTAGG,0.36
23,TCTGACACGTGCGGTT,0.03

row,Sequence,relative binding free energy [kcal/mol]
1,CTTGTCACGTGGTATA,0
2,TTTGACACGTGGCCGT,-0.15
3,TAGTACACGTGTACTG,0.03
4,ATGGTCACGTGAAAGA,0.29
5,GGCTTCACGTGGGGAG,0.33
6,GTTAGCACGTGTCGGC,0.08
7,TGGATCACGTGGCTTT,0.12
8,TCGTTCACGTGCTGGT,0.2
9,AGTGTCACGTGTGTGT,0.05
10,GGTAGCACGTGCTGTA,0.08
11,GCGGGCACGTGTGAAT,0.01
12,TTGTTCACGTGTTTAA,0.17
13,AAAGGCACGTGATGGT,0
14,AGTATCACGTGATGGT,0.27
15,GAGGTCACGTGCGCGT,0.02
16,TTACACACGTGGGTAT,-0.05
17,TTCATCACGTGGGGGT,-0.01
18,TATTTCACGTGGTCGT,0.28
19,TTCGTCACGTGATTCG,0.25
20,GAGAGCACGTGGGGAG,-0.07
21,GTGGGCACGTGAGGGT,0.25
22,TACTTCACGTGTTGTG,0.09
23,GAGTACACGTGTGATA,0.17

row,Sequence,relative binding free energy [kcal/mol]
1,GGGAACACGTGGTCGG,0.15
2,CGGTACACGTGTCGTG,0.05
3,ATTACCACGTGTGGTG,-0.02
4,TGTGACACGTGCTGCG,-0.07
5,GGGATCACGTGCCGGT,0.1
6,TTTAACACGTGAAAGG,0.34
7,GCTTGCACGTGGAGAG,0
8,AGTTACACGTGTAAAT,0.31
9,TGGGTCACGTGAGGCG,0.26
10,TGTTACACGTGTACTA,0.24
11,GTAGACACGTGGTGAT,-0.05
12,ACTTTCACGTGTGAGG,0.37
13,AGGTTCACGTGTCGGG,0.3
14,TCAAGCACGTGTAGTG,-0.12
15,CCTTTCACGTGTGGTG,0.13
16,AGGTGCACGTGCTCGT,-0.23
17,GTCCTCACGTGGTTGT,0.22
18,GGGTTCACGTGTTGAG,0.46
19,GTGAGCACGTGTGGAG,-0.01
20,TTTGGCACGTGGTGTT,-0.18
21,GTAGGCACGTGTCGGT,0.05
22,GTTCGCACGTGGTGGT,-0.01
23,GGGGGCACGTGTCCAG,-0.05

row,Sequence,relative binding free energy [kcal/mol]
1,AGCTACACGTGTGGTT,0.05
2,TGTTGCACGTGACTGG,0.06
3,GGTGGCACGTGTGTCA,0.02
4,TTGGGCACGTGCTTTT,-0.13
5,GGCTTCACGTGGGGTC,0.2
6,TGCATCACGTGAGTGT,0.26
7,TATATCACGTGCTGTT,0.09
8,TAGGTCACGTGATTTA,0.23
9,TTAGTCACGTGGTGAA,0.04
10,TGTTGCACGTGGATGC,0.06
11,CATGTCACGTGTGAGC,0.29
12,TGCGTCACGTGGGATC,-0.01
13,CGTGACACGTGTTTGG,-0.01
14,TGCGGCACGTGGCGGT,-0.11
15,ATTATCACGTGCGGTC,0.26
16,TTTCACACGTGATGAT,0.3
17,GGGCGCACGTGGGATT,-0.2
18,GTGTTCACGTGCGTTT,0.26
19,TCTGTCACGTGGGAGC,-0.01
20,GGTATCACGTGTATCA,0.32
21,CAGATCACGTGTTGTT,0.12
22,GGGGACACGTGTGGGC,0.16
23,GCTGTCACGTGGGGGA,0.04
